# Values joined by “and” are separate entries in the source; they are usually repeats but may differ in a detail not shown here. Equal values may be shown once.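 Tested at 5 concentrations; 48 h exposure; 96-well plates; endpoints linearly interpolated, else capped at highest concentration. At the GI50, growth is halved. TGI denotes the concentration required for complete inhibition of growth.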 Peptide text beside a SMILES is read from it. * marks the point of attachment. Cbz = O=C(OCc1ccccc1)*; NHNH2 = NN*
# System: NCI-H322M lung
# Test: growth of human tumour cells (NCI), 48 h
Compound,TGI,GI50
Brc1ccc2c(-c3csc(-c4c[nH]c5cc(Br)ccc45)n3)c[nH]c2c1,> 82.4 µM,
Oc1ccc(NCc2nc3ccccc3[nH]2)cc1,> 100 µM,> 100 µM
Nc1ccc2[nH]c(-c3cccc(Cl)c3)cc(=O)c2c1,> 100 µM,
CCC(=O)Oc1c2ccsc2c(OC(=O)CC)c2ccsc12,3.19 µM,
O=C(CSc1n[nH]c(=O)[nH]c1=O)NNC(=O)c1cccc2nc3ccccc3nc12,> 100 µM,
CC(C)C(=O)NC(=S)Nc1ccc([N+](=O)[O-])cc1C#N,> 100 µM,
O=C1CCCCN1CCCCC#Cc1ccccc1C#Cc1ccc([N+](=O)[O-])cc1,80.9 µM,22.7 µM
CCN1CCC(O)(C(C(=O)O)c2ccccc2)CC1 (centres undefined),> 100 µM,
N#Cc1cc([N+](=O)[O-])ccc1NC(=O)C(=O)Nc1n[nH]c(N)n1,> 100 µM,
CCOn1c(C2(CC3CCN(C(=O)c4ccccc4)CC3)OCCO2)cc2ccccc21,35.4 µM,
COC(=O)c1c/c(=N\NC(=O)CC(=O)Nc2ccccc2OC)c2ccccc2o1,> 100 µM,
Cc1nn(-c2cc(Cl)ccc2[N+](=O)[O-])c(C)c1Cl,> 100 µM,
CCc1ccc(/C=C\c2cc(OC)c(OC)c(OC)c2)cc1,31.8 µM,0.04 µM
COC12C=C(C)C(CC1)CC2C(=O)O (centres undefined),> 100 µM,
CC(=O)OCCN1c2ccccc2Sc2cnccc21,> 10 µM,
CC[C@@]1(O)C(=O)OCc2c1cc1n(c2=O)Cc2c-1nc1cc3c(cc1c2CCl)OCO3,,0.0648 µM
O=C(O)C(CO)NC(=O)n1c2ccccc2c2ccccc21 (centres undefined),> 100 µM,
O=C(N/N=C/c1ccccc1O)c1ccccc1Nc1ccnc(C(F)(F)F)c1,> 100 µM,0.3 µM
CC(C)(C)OC(=O)N1CCc2c(sc3ncnc(N/N=C/c4cccc5ccccc45)c23)C1,> 100 µM,5.72 µM
COc1cc([N+](=O)[O-])cc2c3c(n(C)c12)[C@@]1(C)CCC2c4ccc(OCc5ccccc5)cc4CCC2C1C3 (some centres undefined),> 100 µM,78.5 µM
CC(=O)OCC(OC(C)=O)C1C[C@H]2O[C@@H]3[C@H](C[C@H]2O1)O[C@@]1(C[C@@H]3C)C[C@H](C)[C@@H]2O[C@]3(C[C@@H]2O1)C[C@H]1O[C@H]2[C@H](C)[C@H]4OC(=O)CC5CC[C@H]6OC7[C@H]8O[C@]9(CC[C@H]%10CC(O)(CO)[C@H](CC[C@H]%11C[C@@H](C)C(O)(CO)C(C[C@@H]4O[C@H]2C[C@H]1O3)O%11)O%10)CC8O[C@@H]7[C@@H](O9)[C@H]6O5 (some centres undefined),0.0865 µM,
Cc1ccc(NC(=O)c2cccc(N(C)C)c2)cc1NC(=O)c1ccc(O)cc1,> 100 µM,> 74.6 µM
COc1ccc2c(c1)CN1C(=N2)CSC1c1ccccc1Cl (centres undefined),45.2 µM,
O=C1CCC2(c3ccc(F)cc3)Nc3cc(Cl)ccc3N12 (centres undefined),> 100 µM,
CC(=O)CNC(=O)OC(C)(C)C,> 100 µM,

Compound,TGI,GI50
c1ccc2c3c(c(N4CCOCC4)nc2c1)CCCC3,> 100 µM,
O=C(O)CNS(=O)(=O)c1ccc(NCc2ccccc2)cc1,> 100 µM,
COC(=O)C1CC2(c3ccccc3)C(=O)c3ccccc3N2O1 (centres undefined),> 100 µM,
O=c1c(-c2ccc(Cl)cc2)nnc2n(Cc3ccccc3)c3ccccc3n12,> 100 µM,
CCOc1cc(-c2nc3ccccn3c2/N=C/c2cc(Br)ccc2O)ccc1O,> 100 µM,
COC(=O)CN1CCSC1=NC#N,> 100 µM,
CC1S/C(=N/c2nnc(-c3ccccc3)o2)NC1=O (centres undefined),> 100 µM,
N#CSc1c[nH]c2cccc(/C=C/C(=O)/C=C(/C=C/c3cccc4[nH]cc(SC#N)c34)OB(F)F)c12,> 42.3 µM,6 µM
COc1ccc(-c2cc(=O)c3ccc(O)cc3o2)cc1OC,> 100 µM,
CS(=O)(=O)c1ccc([C@H]2O[C@@H](CO)C[C@]2(O)c2ccc(S(C)(=O)=O)cc2)cc1,> 100 µM,> 100 µM
C=C1CC(C)(c2ccc(Nc3nc4ccccc4c4occc34)cc2)OC1=O (centres undefined),35.6 µM,
O=C(Cc1ccc([N+](=O)[O-])cc1)OCC#CCOC(=O)Cc1ccc([N+](=O)[O-])cc1,> 10 µM,
Cc1cc2[nH]c3c(C#N)c4c(c(=O)n3c2cc1C)CCCC4,> 100 µM,
CSc1nc2c(c(=O)n1C)N=C(c1ccccc1)[C@H](C(CC(=O)c1ccccc1)c1ccccc1)C(c1ccccc1)N2 (some centres undefined),> 100 µM,
O=C(Cc1ccccc1)NN1C(=O)/C(=C\c2ccc([N+](=O)[O-])cc2)SC1=Nc1ccccc1,> 100 µM,
O=c1/c(=C/c2ccco2)sc2nc3ccccc3n12,> 100 µM,> 100 µM
O=C1/C(=C/c2ccccc2)CNC/C1=C\c1ccccc1,12.2 µM,
N#Cc1c(-c2ccc(F)cc2)nc(N/N=C/c2c[nH]c3ccccc23)nc1N1CCOCC1,> 100 µM,15 µM
COc1ccc(-c2cnnc3c(-c4cccc(C(F)(F)F)c4)cnn23)cc1,> 100 µM,3.87 µM
COc1c(C)c2nc3ccccc3[nH]c2c2c(=O)ccnc12,> 100 µM,
Nc1cc(N)c2nc(-c3ccccc3)c(Nc3ccc(Cl)c(Cl)c3)nc2c1,30.2 µM,14.5 µM
CN(C)S(=O)(=O)Nc1nnc(S(N)(=O)=O)s1,> 100 µM,
COc1cc2c(/C=C3/C(=O)Nc4ccccc43)c(Cl)[nH]c2cc1C,17.8 µM,
NC1CNC(=O)c2c(Cl)sc(Cl)c21 (centres undefined),> 100 µM,
COC(=O)CC(NC(=O)OCc1ccccc1)C(=O)NC(CC(=O)OC)C(=O)NC(CC(=O)OC)C(=O)NC(CC(=O)OC)C(=O)NC(CC(=O)OC)C(=O)NC(CC(=O)OC)C(=O)NN (centres undefined) (Cbz-D(OMe)D(OMe)D(OMe)D(OMe)D(OMe)D(OMe)-NHNH2; configuration not given here),> 100 µM,

Compound,TGI,GI50
N#Cc1ccc(O)c(C2=NCC(c3cccc(Oc4ccccc4)c3)O2)c1 (centres undefined),> 100 µM,2.02 µM
NC(N)=NS(=O)(=O)c1ccc(NC(=O)c2ccc3nc4ccccc4c(Nc4ccc(S(=O)(=O)N=C(N)N)cc4)c3c2)cc1,> 100 µM,
CC(C)(C)C1C=C(Sc2ccccc2)C(=O)O1 (centres undefined),> 100 µM,
COc1cc(CN2CCCCC2)cc2cc(C(=O)O)c(=O)oc12,> 100 µM,
CCCCN=C(NC#N)NCCCC,> 100 µM,
COC(=O)c1ccc(C=Nc2ccc(S(N)(=O)=O)cc2)cc1,> 100 µM,
CC1=NN(C(=O)Nc2ccccc2)C(=O)C2CCC(=O)N12 (centres undefined),> 100 µM,
CCC[CH2][Sn]([CH2]CCC)([O]C(=O)c1cccnc1SC)[O]C(=O)c1cccnc1SC,4.59 µM,2.09 µM
O=C(/N=N/C(=O)OCc1ccccc1)OCc1ccccc1,> 100 µM,
N#Cc1cc2c(cc1Cl)Sc1nccn1S2(=O)=O,8.69 µM,
NC(CCC(=O)NC(CSSCCCCS(=O)O)C(=O)NCC(=O)O)C(=O)O (centres undefined),> 100 µM,
Nc1ccc(S(=O)(=O)Nc2nc3ccccc3nc2N2CCCCC2)cc1,> 100 µM,
C[C@]12CC[C@H]3[C@@H](CC=C4C[C@@H](O)CC[C@@]43C)[C@@H]1CC[C@@H]2N(CCO)CCO,> 100 µM,
Oc1ccc(CN2CCC(N3CCCCC3)CC2)c2cccnc12,> 100 µM,26.8 µM
COc1ccc(NC2=CC(=O)C(=O)c3ccccc32)nn1,15.7 µM,
c1ccc(/C(=N/Nc2ccccn2)c2ncccn2)cc1,> 100 µM,
O/N=C/C1c2ccccc2-c2ccccc21,35.7 µM,
Cn1c2ccccc2n2c(=O)c3cc([N+](=O)[O-])ccc3c(C#N)c12,> 100 µM,
OCC(O)CC[CH2][Sn]([Br])([c]1ccccc1)[c]1ccccc1 (centres undefined),> 100 µM,6.54 µM
Cc1ccc2c(c1)[n+]([O-])c(N)n[n+]2[O-],> 100 µM,
O=c1[nH]ncc(Br)c1Br,12 µM,3.07 µM
CC1(C)OC2[C@@H](CNC(=O)NC(=O)NC(=O)CI)O[C@@H](n3cnc4c(NC(=O)Nc5ccccc5)ncnc43)[C@H]2O1 (some centres undefined),> 50 µM,> 50 µM
CN(C)CCn1c(=O)c2ccc(NCCCN(C)CCCNc3ccc4c(=O)n(CCN(C)C)c(=O)n5c6ccc([N+](=O)[O-])cc6c(=O)c3c45)c3c(=O)c4cc([N+](=O)[O-])ccc4n(c1=O)c23,1.24 µM,
COc1cc(I)c2c3c1OC1C34CCN(C)C(C2)C4=CC(I)C1(OC)OC (centres undefined),> 100 µM,
COC(=O)[C@]12CC[C@@H](C)[C@H](C)[C@@H]1C1=CC[C@@H]3[C@@]4(C)C/C(=N\O)[C@H](O)[C@@]5(C)COC(=C45)C[C@@]3(C)[C@]1(C)CC2,21.9 µM,6.33 µM

Compound,TGI,GI50
NC(=O)c1ccc(I)c(N)c1,> 100 µM,> 100 µM
Brc1cccc(C=NC23CC4CC(CC(C4)C2)C3)c1,> 100 µM,
C=c1c(OC)c(OC)c(O)c2c1=c1cc([N+](=O)[O-])cc(OC)c1=N2,> 100 µM,
COCc1nc2c(OC)cc(-c3nc4ccc(N5CCN(C)CC5)cc4[nH]3)c(OC)c2[nH]1,> 100 µM,
O=C1C2c3[nH]c4ccccc4c3C3CCCCCCC3C2C(=O)N1c1ccccc1 (centres undefined),> 100 µM,
O=C(/C(Br)=C/c1ccccc1)c1ccccc1,28.5 µM,14.2 µM
CCOc1cc2c(Cl)ncnc2c(OCC)c1OCC,14.2 µM,3.9 µM
Cc1cn([C@@H]2C[C@H]2CO)c(=O)[nH]c1=O,> 100 µM,
NC(=O)c1cc2ccccc2o/c1=N/O,> 100 µM,
CCOC(=O)/C(C#N)=N\Nc1ccc(-n2c(C)nc3ccccc3c2=O)cc1,> 100 µM,
COc1ccc2cc(NC(=O)N/N=C\c3ccc(Cl)cc3)ccc2c1,> 100 µM,
CC[C@@H]1C(=O)N(C)c2cnc(Nc3ccc(C(=O)NC4CCN(C)CC4)cc3OC)nc2N1C1CCCC1,> 10 µM and 18.1 µM,
COc1ccc2c(c1)CC1=C(O2)c2ccc(OC)cc2OC1,> 100 µM,
COc1cc2c(c(O)c1Br)C(=O)c1c(O)cc(C[C@H](C)O)cc1[C@H]2[C@H]1c2cc(C[C@H](C)O)cc(O)c2C(=O)c2c1cc(OC)c(Br)c2O,67.5 µM and > 100 µM,15.1 µM and 27.3 µM
CCC(C(=O)c1ccc(OC)c(OC)c1)N(C(=O)C(F)(F)F)C(C)c1ccccc1 (centres undefined),> 100 µM,
CCOC(=O)[C]1([Bi]([CH3])[CH3])N=NC(C(=O)OC)=C1C(=O)OC (centres undefined),> 100 µM,71.7 µM
C=C1C(=O)O[C@H]2[C@H]1CC/C(Cn1cc(-c3ccc(OC)cc3)nn1)=C\CC[C@@]1(C)O[C@@H]21,23.4 µM,10.7 µM
FC(F)(F)c1ccc2nc3n(c2c1)C(c1c(Cl)cccc1Cl)SC3 (centres undefined),31.4 µM,
CN1CCN(C(=O)OCc2nc3c(N4CCOCC4)nc(Cl)nc3n2C)CC1,4.17 µM,1.74 µM
Cc1cc2c(cc1C)[n+](=O)c(C(=O)C/C(=N/NC(=O)CC#N)C(=O)Nc1ccccc1C(F)(F)F)c(C)n2[O-],> 100 µM,
CC1(C(=O)O)CCCC1C(=O)O (centres undefined),> 100 µM,
Brc1cccc(N=NN2CCCC2)c1,> 100 µM,

# Source: PubChem BioAssay (NCI)
